Data: paper PMC4336329 (PLoS ONE, 2015)
Hit rate of the full screen: of about 310,000 compounds, about 14,000 (4.5%) showed an effect of 50% or more. The effect is printed as a negative number. This is one part of the list.

What follows are molecules tested against human ether-à-go-go-related gene (hERG) potassium channel (human, UniProt Q12809) (assay: primary screen, population patch clamp on CHO cells stably expressing hERG).
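Also: peak tail current of the secondary pulse compared with the same well before compound.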

human ether-à-go-go-related gene (hERG) potassium channel, sequence (Q12809 whole entry, looked up): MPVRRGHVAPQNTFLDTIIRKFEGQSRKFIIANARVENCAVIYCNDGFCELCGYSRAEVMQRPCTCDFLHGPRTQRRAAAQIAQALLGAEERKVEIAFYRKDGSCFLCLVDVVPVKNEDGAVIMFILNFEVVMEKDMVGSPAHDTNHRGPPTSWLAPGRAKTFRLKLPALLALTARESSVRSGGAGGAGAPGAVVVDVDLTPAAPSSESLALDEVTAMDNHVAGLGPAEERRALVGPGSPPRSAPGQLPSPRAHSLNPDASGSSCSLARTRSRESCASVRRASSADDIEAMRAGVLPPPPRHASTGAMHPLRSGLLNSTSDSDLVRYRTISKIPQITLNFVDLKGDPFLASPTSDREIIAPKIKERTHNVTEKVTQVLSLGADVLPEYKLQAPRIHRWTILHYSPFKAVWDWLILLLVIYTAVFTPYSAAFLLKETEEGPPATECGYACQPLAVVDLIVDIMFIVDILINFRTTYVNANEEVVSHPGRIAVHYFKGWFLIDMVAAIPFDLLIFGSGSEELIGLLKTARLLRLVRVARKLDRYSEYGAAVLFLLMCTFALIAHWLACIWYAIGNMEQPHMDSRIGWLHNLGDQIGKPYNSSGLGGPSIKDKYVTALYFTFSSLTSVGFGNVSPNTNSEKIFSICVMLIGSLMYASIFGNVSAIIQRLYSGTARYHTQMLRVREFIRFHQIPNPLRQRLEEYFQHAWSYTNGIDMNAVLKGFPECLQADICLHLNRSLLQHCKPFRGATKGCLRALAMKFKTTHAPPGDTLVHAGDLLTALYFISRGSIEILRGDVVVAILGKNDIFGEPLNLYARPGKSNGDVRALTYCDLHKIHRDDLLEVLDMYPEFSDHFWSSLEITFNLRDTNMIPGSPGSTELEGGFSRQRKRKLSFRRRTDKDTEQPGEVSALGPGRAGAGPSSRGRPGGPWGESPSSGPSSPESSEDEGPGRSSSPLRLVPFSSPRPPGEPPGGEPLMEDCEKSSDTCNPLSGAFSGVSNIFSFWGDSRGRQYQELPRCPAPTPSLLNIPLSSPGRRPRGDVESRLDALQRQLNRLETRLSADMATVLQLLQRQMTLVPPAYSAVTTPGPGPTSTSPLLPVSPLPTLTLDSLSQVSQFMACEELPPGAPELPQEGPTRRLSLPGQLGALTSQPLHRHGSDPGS

Row | Structure (SMILES) | hERG current change (%, negative = inhibition) at 10uM
1 | CC(C)NC(=O)CN(CCc1ccccc1)S(C)(=O)=O | 10.8%
2 | O=C(COC(=O)c1ccc(F)c(S(=O)(=O)N2CCOCC2)c1)c1ccc(Cl)cc1 | -31.1%
3 | COc1cc2nc(C(C)(C)C)oc(=O)c2cc1OC | 10.6%
4 | CC1CCc2c(C(=O)NCc3cccnc3)csc2C1 (stereo not drawn) | -25.7%
5 | COc1ccccc1N1CCN(Cc2c(F)cccc2Cl)CC1 | -3.52%
6 | O=C(O)CSc1cc(C(F)(F)F)nc(-c2ccccn2)n1 | 5.55%
7 | Clc1ccccc1-c1ncc(-c2ccccc2)o1 | -7.26%
8 | Cn1c(=O)[nH]c(=O)c2c1nc(SCC(O)CO)n2Cc1ccccc1Cl (stereo not drawn) | -2.7%
9 | O=C(Nc1ccccc1)c1cccnc1N1CCOCC1 | 19.4%
10 | O=C(COc1ncnc2cc(Cl)ccc12)c1ccc2c(c1)OCCO2 | 18.1%
11 | S=C(NCc1ccco1)N1CCN(C(c2ccccc2)c2ccccc2)CC1 | 0.301%
12 | O=C(COC(=O)C1CCN(/C=C/C(=O)C(F)(F)F)CC1)Nc1ccccc1 | -9.73%
13 | Cc1onc(-c2ccccc2)c1C1=N/C(=C\c2ccccc2F)C(=O)O1 | 27.6%
14 | O=C(Nc1ccon1)c1ccc(Cl)c(S(=O)(=O)N2CCCCC2)c1 | 19.3%
15 | CCOc1cc([C@H]2[C@@H]3CCCC[C@]3(O)CCN2CC(=O)NCc2ccco2)ccc1O | -3.22%
16 | CCCCc1cc(=O)oc2cc(C)cc(OCC(=O)NCc3ccncc3)c12 | -84.1%
17 | CCC(C)(C)n1nnnc1C(c1ccc(F)cc1)N1CCC(C(N)=O)CC1.Cl (stereo not drawn) | 19.7%
18 | CCCCN(Cc1ccccc1)C(=O)CCN1C(=O)C2C3C=CC(C3)C2C1=O (stereo not drawn) | 1.48%
19 | O=C(Nc1ccncc1)c1ccc(NS(=O)(=O)c2ccc3[nH]c(=O)[nH]c3c2)cc1 | 40%
20 | Cc1ccc(S(=O)(=O)NCC2CCC(C(=O)O)CC2)cc1 (stereo not drawn) | -5.39%
21 | Cc1ccc(C(=O)c2ccc(N3CCOCC3)c(F)c2)cc1 | -22%
22 | O=C1OC(OC2CCCCC2)(c2ccccc2)c2ccccc21 (stereo not drawn) | -10.4%

Row | Structure (SMILES) | hERG current change (%, negative = inhibition) at 10uM
23 | CCS(=O)(=O)c1ncc(Cl)c(C(=O)Nc2ccc(C)cc2)n1 | 15%
24 | Cc1ccc(-c2cc(C(=O)N/N=C/c3ccc(F)cc3)n[nH]2)o1 | 4.98%
25 | Cn1c(=O)c2c(O)c(C=Nc3ccc(F)cc3)c(=O)n(C)c2n(C)c1=O | 5.63%
26 | C[C@H](NC(=O)c1nc[nH]c1C(=O)N[C@@H](C)C(=O)OC(C)(C)C)C(=O)OCc1ccccc1 | -20.4%
27 | Cc1nnc(NC(=O)Cn2cnc3c2c(=O)n(C)c(=O)n3C)s1 | 3.62%
28 | NS(=O)(=O)c1ccc(N/N=C/c2ccc3c(c2)OCO3)c([N+](=O)[O-])c1 | 2.79%
29 | COc1cc(C(=O)NC(=S)Nc2ccc(Cc3ccncc3)cc2)cc(OC)c1OC | -18.9%
30 | COc1ccc(C(=O)Oc2ccc3oc(=O)sc3c2)cc1 | -3.51%
31 | Cc1ccc(O)c(NC(=O)CCCC(=O)O)c1 | 5%
32 | CC1(C)N=C(N)N=C(N)N1c1ccc(F)cc1F.Cl | 6.69%
33 | COc1ccc2[nH]c(=O)c3c(c2c1)OC(C)(C)C=C3 | 6.92%
34 | Cc1ccc(S(=O)(=O)NCC(=O)Nc2ccc3c(c2)OCCO3)cc1 | 18.9%
35 | C=CCN(C(=O)CCC(=O)Nc1cc(C)on1)C(C(=O)NC(C)(C)C)c1ccc(OC)cc1 (stereo not drawn) | -4.11%
36 | O=C(CN1CCCCCC1)Nc1c(Cl)cc(Cl)cc1Cl | -5.28%
37 | COc1ccccc1C1=NOC(C)(c2nnc(Cc3ccccc3)o2)C1 (stereo not drawn) | 5.63%
38 | Cl.NC(=S)NC(c1ccccc1)c1ccncc1 (stereo not drawn) | -9.63%
39 | COc1cccc(OC)c1-c1nn2c(-c3cc(-c4ccccc4)n[nH]3)nnc2s1 | 9.5%
40 | O=C(Cc1ccccc1)NNC1CC(=O)N(c2ccccc2)C1=O (stereo not drawn) | 10.8%
41 | CCC(C)[C@H]1COCCS(=O)(=O)N1Cc1ccccc1F (stereo partly drawn) | -18.5%
42 | Cc1cnc(NC(=O)c2ccc(F)c(S(=O)(=O)N3CCOCC3)c2)s1 | -46.4%
43 | Cc1cc(C(F)(F)F)nn1CC(=O)N(C)C1CCCCC1 | 22.7%
44 | O=S(=O)(c1ccc(NC(=S)N2CCN(c3ccccc3F)CC2)cc1)N1CCOCC1 | 21.1%

Row | Structure (SMILES) | hERG current change (%, negative = inhibition) at 10uM
45 | Cc1cc(N)n(-c2ccc(S(=O)(=O)N3CCCC3)cc2[N+](=O)[O-])n1 | -3.48%
46 | CC(Oc1ccccc1)C(=O)Nc1ccc(C(N)=O)cc1 (stereo not drawn) | -11.9%
47 | Nc1ccc2c(c1)CC(=O)c1ccccc1S2 | -2.93%
48 | CS(=O)(=O)N(CC(=O)NC1CCCCC1)c1cccc(Cl)c1 | -2.87%
49 | CN(C)S(=O)(=O)c1cccc(C(=O)NCCc2ccccc2)c1 | -8.76%
50 | Cc1ccc(N(C(=O)Cc2cccs2)C(C(=O)NCC2CCCO2)c2ccncc2)cc1 (stereo not drawn) | 11.5%
51 | O=C(Nc1ccc(F)cc1)N(CCCN1CCOCC1)Cc1cc2cc3c(cc2[nH]c1=O)OCO3 | -49.3%
52 | COc1ccc(-c2nc(C)ncc2N=Nc2ccccc2)cc1 | 6.49%
53 | Cc1ccc(S(=O)(=O)C2(C(=O)NC3CCCC3)CC2)cc1 | -7.75%
54 | COc1cc2cc(CCCOC(=O)c3ccc(C#N)cc3)oc(=O)c2cc1OC | -65%
55 | Cc1ccc(S(=O)(=O)Nc2ccccc2F)cc1C(=O)NCc1ccco1 | 6.45%
56 | CN(C)c1nc(Cl)nc(N(C#N)CCOc2ccccc2)n1 | 7.92%
57 | Cc1noc(C)c1C(=O)NC(C)C1CCCO1 (stereo not drawn) | 3.08%
58 | CN(C)C(=O)c1cn(-c2ccccc2)nc1-c1cc2ccccc2o1 | -10.3%
59 | Cc1cccc2sc(NC(=O)[C@@H]3CCCN3C(=O)c3cccs3)nc12 | 2.2%
60 | CC(C)Cn1c(N)c(C(=O)COC(=O)CCc2nc3ccccc3s2)c(=O)n(C)c1=O | -69.3%
61 | COCCN(Cc1cc2cccc(C)c2n2nnnc12)C(=O)C(F)(F)F | -8.44%
62 | CCOc1ccc(N2CC(C(=O)Nc3cc(Cl)ccc3-n3cncn3)CC2=O)cc1 (stereo not drawn) | -64.2%
63 | O=C(COC(=O)CNC(=O)c1ccc(Cl)cc1Cl)Nc1cccc(S(=O)(=O)N2CCCC2)c1 | -16.7%
64 | COc1cccc(-c2nn(-c3ccccc3)cc2CN(C)Cc2c(C)nc3ccccn23)c1 | -59.9%
65 | O=C(CSc1nnc(-c2ccccc2)o1)NC1CCCC1 | -20.2%
66 | CC1CCCCC1NC(=O)c1nn(C)c(=O)c2ccccc12 (stereo not drawn) | -11.8%

Row | Structure (SMILES) | hERG current change (%, negative = inhibition) at 10uM
67 | CC(C)C(=O)Nc1cccc(C(=O)Nc2cc([N+](=O)[O-])ccc2F)c1 | 5.51%
68 | Cc1ccc(NC(=O)c2cccnc2C(=O)Nc2ccc(C)cc2)cc1 | 8.73%
69 | COc1ccccc1CCNC1CCCC(C)C1 (stereo not drawn) | -11.9%
70 | COc1ccccc1OCC(O)CN1CCN(CC(=O)Nc2c(C)cccc2C)CC1 (stereo not drawn) | -18.6%
71 | O=C1CSC(c2ccccc2)N1CC(O)c1ccc([N+](=O)[O-])cc1 (stereo not drawn) | -12.1%
72 | COc1cccc(C2CC(c3ccccc3)n3ncnc3N2)c1 (stereo not drawn) | -19.7%
73 | Cc1nn(CC(=O)N2CCN(c3ccccn3)CC2)c(=O)c2cc3sccc3n12 | 18.7%
74 | O=C(COC(=O)c1cccnc1Cl)Nc1ccccc1OC(F)F | -11.3%
75 | Cc1ccccc1NC(=O)N1CCC(NC(=O)C2CCCCC2)CC1 | 11.6%
76 | CCOc1ccc(-n2c(-c3ccc(Cl)cc3)c[n+]3c2SCC3)cc1.[Br-] | -80.9%
77 | COc1ccc(C(=O)Nc2ccc(N3CCCC3)cc2)cc1 | -3.35%
78 | CC(C)c1nnc(NC(=O)COc2ccc3ccccc3c2)s1 | -17%
79 | CCN(Cc1ccncc1)C(=O)c1cc(COc2ccc(F)cc2Cl)on1 | -44%
80 | Fc1ccccc1N1CCN(c2nc(-c3cccs3)nc3ccccc23)CC1 | 8.57%
81 | C#CCOCCOCCOCCNc1nc(N2CCN(C(=O)[C@H](CCCC[NH3+])n3cc(CCCC)nn3)CC2)nc(N2CCN(C(=O)[C@H](Cc3ccc(O)cc3)n3cc(CCO)nn3)CC2)n1.[Cl-] | 3.29%
82 | O=C(CN1C(=O)C2(OCCCO2)c2ccccc21)NCc1ccccc1 | 1.57%
83 | O=C(NCCO)C(=O)c1c(-c2ccccc2)cc2ccccn12 | -11.9%
84 | Cc1ccc(N=c2oc3cc(O)ccc3cc2C(N)=O)cc1 | -15%
85 | Nc1c(C(=O)c2cccs2)sc2nsc(SCCN3CCCCC3)c12 | 14.4%
86 | COc1ccc(C2(O)CC3CCC(C2)N3c2nc(C)cc(C)c2C#N)cc1 (stereo not drawn) | -3.97%
87 | Cc1cc(C)cc(NC(=O)CSc2nc3nc(C)cc(C)c3c(=O)[nH]2)c1 | 1.97%
